Read counts are not given, so values of variants with three or more changes are uncertain.
B1: OR4K15 (parent)
chain: GUUAACGGUCAUAGGCCAUGGAAACUAGGAGCACCAUUUCGCUGCCAGUGAAGAAAUGAACAAAGAAAAUCUGGGCCAGGCAGGCAUCAAAAGAAAUAGUCUUGCGCUCAACCAGAAAGUCUGUAAUCAUUUUAAGGGUA

Variants of: B1
Assay: self-cleavage, relative activity (ratio to wild type); higher = more cleavage; in vitro, sequencing; the parent is a self-cleaving ribozyme

Variant | self-cleavage
A4G A18G C105A | 0.07
A27G U37C A59G C77U U87C | 1.62
U9C U37C U49A A62G | 1.56
A11G A18G U70C A92G | 0.75
U26G A54G U102C | 1.68
U9A A54G G75A | 0.07
A36U A90C A91G A114U | 0.1
U19C A22G U49C A67G | 0.89
A30U A67G U108C | 0
A63G A68G A92G | 1.23
A5G G14A A118G | 0.65
A36G U43A A114U U131C | 0.09
A18C G83A U87C A94G | 1.3
A4G A89U A94G | 0.78
A5G A78G A89G | 0.34
U2C U49C A91G | 0.14
A5U G73A U127C | 0.22
U49A A94G A96G U130C | 0.51
A18U A66G A111U C112U | 0.01
U19A A47U U49C A86G A92U | 0.81
G14A A59U C61A U70C A90G | 0.09
A54U U97C A129G | 0.92
A98G U130C U133G | 0.06
C40A U43A U49A G53A A59G A129G A135C | 0.39

Variant | self-cleavage
A60G A98G U102A | 0.17
U49G A52G A94G | 1.16
A24G C34U U57C A60G U87A U103C U108C A116G | 0.01
A52G A54G A66G U72C U87C | 0
U70A U102A U133C A140G | 0.32
A24U G41A A96G U132C | 1.13
A67G U72C A96G A114G | 2.46
U12C A23U A55G U124C A126G | 0.64
U43A A68G U103C | 1.37
A24U U39C A82G A111U | 0.08
U26C A51G A135U | 1.9
U2C C35A A51G U57G A117U U131C | 0.75
A5G A24G A60G | 0.29
U19C A60G A82G G99A A114G | 0
A24G U38C U43A A54G U103A | 0.37
A56G A117G A125U | 1.97
A51G A96G U102C U120G | 1.89
A55G U72A A89G | 0.32
U2C A54G U103C | 1.2
A59G A68G A95G U122A | 2.37
A18G A23G A90G | 0.28
A24G A33U A91G | 0.88
A23G G74A U100C A111U G138A | 0.02
U2C A55G A69G | 1.51

Variant | self-cleavage
G7A A118G U139C | 2.58
A5G G29A A89G U100A A125G | 0.4
G44A A60G A67G A90G | 0.53
A23G G58A A66U A94U | 0.75
U9A A36U A64U A91U A126G | 1.58
A60G A86G A92G U132C | 0.53
A18C U87C U133A | 1.41
U9C U12C A60G | 2.1
U37C U39C G73U G136A | 0.25
A47U U100C U122C | 1.87
U2A A67G A68G U87C A92G | 1.54
G8A A24G G50U A78U A86G | 0.17
G8A A54G U108C | 0.01
A22G A94G A98U A111G U132C | 0.01
U19C U37C A78G | 0.27
U49C A86U U102C | 1.39
C40U A47U A67U U72C U108A | 0.01
A18U A24G A33G U87C U97A | 1.33
A11G A24G A52G | 1.34
A94U U120C U132C | 1.12
A11U A117G U122C | 1.31
U38C G58U U122A | 1.21
C16U U38C U72A A135G | 0.58
A11G U38G A96G U120C | 0.44

Variant | self-cleavage
G75U U131C A135G | 0.14
U37G A56G A118U U124C | 0.35
A24G C40U A78G U108C | 0.03
A13U A64G A86G U122C | 1.44
A13U A22G G50U A51U | 0.89
A11C A78G U100C A111G | 0
A86C U120A U127C | 0.42
U2C A47G A60U | 2.09
A23G U39C A96G | 1.48
A78G U102C A116G U139C | 0.12
A69U A94G A111G U139C | 0.02
U3A A117G U122A | 1.36
A33G U102C A111G | 0.02
A22G A94G U102C U127C | 0.95
A91U A94G U97C U122A | 1.23
U9C A27G A54G U131C | 1.79
U12C C25U U127C | 0.72
U19C A51U A117G | 1.35
U9A A47G A63G A67G U97A | 0.74
A54C A68G A89G | 1.36
A47G U103C A118G | 0.19
U2C A18C A27G U43G A55G A60G G74A U97G U122A | 0.05
A54U A60G A64G A90G | 0.28
A30U A36G U130C | 0.7

Variant | self-cleavage
A91G U100A A125C | 0.2
A33C U49C U70C | 1.24
A33U U37A U39C A126U | 1.27
A56G C77U A94G A98U | 2.57
U19C A33G A47G | 0.64
U9C A111U A126G G136U | 0.09
U49C C71U U87A | 0.22
A56G A62G U103C | 1.11
A23U C107U U122G | 0.03
C35A A96G U100C | 1.89
A92G A125G G136A | 0.99
A13G A24C A51G A86G | 1.08
U38C A67G A89G A92G U100C | 1.99
C6U A62G U100A U103C G137A | 0.14
A24G U57G A140G | 0.86
U57A U70C U100G | 0.41
A36G A129G U132C | 2.03
U9C A51G C85U A111G U139C | 0.1
A27U U38C A68G U122C | 1.4
A90G A118G U120C U132C | 0.01
U26C C61U A90G | 1.99
A91U A98G U122A U130C | 0.65
C6U A52U A62G A66G | 0.89
U3C U97C U122C A126G | 0.72

Variant | self-cleavage
A55G A111G U131C | 0.02
A22U A51G U72A A96G U100C A114G A126G | 0.12
A11U A24C A82G A114G A116G | 0.1
U26A A51G A96G | 0.75
C6U A11G U43C A68G | 0.79
U19C C61U U70G | 1.36
A52U A54G A110G | 0.28
A55G A56G A67G A68G C128U | 1.46
A96G A126G U132G | 0.64
A90G A117G A126G | 0.31
A30G A52U U72A A110C U130C | 0.02
U49C A51G A60G | 1.25
U9C A30G A140U | 1.33
U12C A52G A117G | 1.9
A22G A51G U72A U108G | 0.02
A27G A68G U132A | 1.4
C61U C71A A94C U122C C128U | 0.04
U38C U70C A90G | 1.21
A52G A89G U122C | 1.38
A18G A54G U57A | 1.11
A30U G44A U103C U120C | 0.52
A18G A60G A96G U127C | 0.46
U9C A23G C77A | 0.75
A55G A56G A92G U131C | 2.11

Variant | self-cleavage
A36C A62G A94G C109A | 0.35
U57C A86C G93U A98U A117G U130C U131C | 0.25
A54G A117G U127A | 1.83
U37G A56G U124A | 0.65
U3C U19C U38C A86G | 0.86
A59G A91G U120C | 0.56
U12C A98G A126G A135G | 0.35
A59G A82G G83A | 0.26
U2A A27U U130C | 1.21
U9C A51G A66G | 0.95
U57A U87C U124A | 0.65
U26C A47G A78U | 0.37
A36G U72C A96U A98G | 0.19
U12C A23G A62G A134U | 0.53
A18G A60U U97A | 2.18
U38C U43C A56G U132G | 1.02
U57C A62U A95U U122C | 1.34
U49C G58A A67C U100C U124C | 2.2
A22G A82U U108C | 0.03
A36U U132C U139C | 1.77
A5C A52G A68G | 0.88
U26C U57A A98G U120C | 0.13
A68G A114C A125C A126C | 0.01
